Data reported in patent EP4603109A1 (Sichuan Kelun-Biotech Biopharmaceutical Co., Ltd., dated 2024).

Key:
rat B7-H3 on CHO-S cells = target: T1, rat B7-H3 on CHO-S cells (rat, UniProt Q7TPB4 29-316); experiment: flow cytometry on CHOS-rat B7-H3 cells
T1 construct: whole, on cells; also called CHO-S-rat B7-H3; CHOS-rat B7-H3
T1 sequence (looked up): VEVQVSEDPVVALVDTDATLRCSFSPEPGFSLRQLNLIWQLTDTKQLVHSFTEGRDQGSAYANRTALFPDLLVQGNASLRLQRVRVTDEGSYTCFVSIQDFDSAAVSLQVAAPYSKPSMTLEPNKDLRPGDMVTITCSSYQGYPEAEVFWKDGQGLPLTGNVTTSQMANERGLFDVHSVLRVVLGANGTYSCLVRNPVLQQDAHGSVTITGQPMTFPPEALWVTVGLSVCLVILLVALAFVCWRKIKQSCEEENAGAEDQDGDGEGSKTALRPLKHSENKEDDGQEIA

[1] = target: T2, monkey B7-H3 on CHO-S cells (monkey); experiment: flow cytometry on CHOS-monkey B7-H3 cells
T2 construct: whole, on cells; also called CHO-S-monkey B7-H3; CHOS-monkey B7-H3

[2] = target: T3, human B7-H3-4Ig on CHO-S cells (human, UniProt Q5ZPR3 29-534); experiment: flow cytometry on CHOS-human B7-H3-4Ig cells
T3 construct: whole, on cells; also called CHO-S-human B7-H3-4Ig; CHOS-human B7-H3-4Ig
T3 sequence (looked up): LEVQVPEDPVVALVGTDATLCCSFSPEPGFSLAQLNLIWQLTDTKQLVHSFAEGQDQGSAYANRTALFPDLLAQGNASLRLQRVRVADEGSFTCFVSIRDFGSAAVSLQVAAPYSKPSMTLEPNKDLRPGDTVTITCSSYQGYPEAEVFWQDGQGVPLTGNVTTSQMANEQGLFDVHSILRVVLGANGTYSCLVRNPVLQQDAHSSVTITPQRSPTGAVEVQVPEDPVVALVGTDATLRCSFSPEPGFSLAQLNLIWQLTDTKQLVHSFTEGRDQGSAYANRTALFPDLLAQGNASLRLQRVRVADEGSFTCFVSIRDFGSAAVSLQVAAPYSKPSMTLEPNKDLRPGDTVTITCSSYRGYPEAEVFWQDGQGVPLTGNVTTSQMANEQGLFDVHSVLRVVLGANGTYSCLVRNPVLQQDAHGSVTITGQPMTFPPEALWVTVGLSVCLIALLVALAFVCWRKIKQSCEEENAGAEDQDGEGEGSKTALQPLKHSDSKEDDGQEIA

human C1q = target: T4, human C1q (human, UniProt P02745; P02746; P02747, biotinylated (sites not given)); experiment: BLI (ForteBio), biotinylated C1q on SA sensor
T4 construct: Biotinylated protein captured on SA sensor

[3] = target: T5, human Fc receptor protein CD32a (human, UniProt P12318 36-218, limits assumed, biotinylated (sites not given)); experiment: BLI (ForteBio), biotinylated receptor on SA sensor
T5 construct: Biotinylated protein captured on SA sensor
T5 sequence (looked up): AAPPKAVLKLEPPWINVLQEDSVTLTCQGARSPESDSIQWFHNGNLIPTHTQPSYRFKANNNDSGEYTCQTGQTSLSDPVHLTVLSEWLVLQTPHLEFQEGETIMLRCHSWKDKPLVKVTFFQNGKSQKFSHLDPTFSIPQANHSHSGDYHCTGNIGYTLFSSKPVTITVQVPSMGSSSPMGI

[4] = target: T6, human Fc receptor protein CD32b (human, UniProt P31994 46-217, limits assumed, biotinylated (sites not given)); experiment: BLI (ForteBio), biotinylated receptor on SA sensor
T6 construct: Biotinylated protein captured on SA sensor
T6 sequence (looked up): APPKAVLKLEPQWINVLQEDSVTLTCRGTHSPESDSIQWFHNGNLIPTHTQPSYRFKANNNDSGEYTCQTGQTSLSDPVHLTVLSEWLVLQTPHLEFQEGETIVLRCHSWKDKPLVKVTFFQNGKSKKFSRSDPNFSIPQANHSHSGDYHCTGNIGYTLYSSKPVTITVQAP

[5] = target: T7, human B7-H3-2Ig-his protein (human, UniProt Q5ZPR3-2 29-245, limits assumed); experiment: BLI (ForteBio), antibody on Protein A sensor, antigen 200-3.125 nM, 1:1 global fit
T7 construct: the 2Ig form is its isoform 2; not shown: His tag
T7 sequence (looked up): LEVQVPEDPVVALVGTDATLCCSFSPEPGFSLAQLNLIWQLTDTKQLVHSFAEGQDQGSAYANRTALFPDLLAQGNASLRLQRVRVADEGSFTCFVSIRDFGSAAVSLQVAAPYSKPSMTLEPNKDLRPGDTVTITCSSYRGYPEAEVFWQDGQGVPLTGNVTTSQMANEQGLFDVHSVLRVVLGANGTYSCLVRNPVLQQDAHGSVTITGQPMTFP

monkey B7-H3-his protein [6] = target: monkey B7-H3-his protein (monkey); experiment: as above
[7] = target: T8, human B7-H3-4Ig-his protein (human, UniProt Q5ZPR3 29-461, limits assumed); experiment: as above
T8 construct: not shown: His tag
T8 sequence (looked up): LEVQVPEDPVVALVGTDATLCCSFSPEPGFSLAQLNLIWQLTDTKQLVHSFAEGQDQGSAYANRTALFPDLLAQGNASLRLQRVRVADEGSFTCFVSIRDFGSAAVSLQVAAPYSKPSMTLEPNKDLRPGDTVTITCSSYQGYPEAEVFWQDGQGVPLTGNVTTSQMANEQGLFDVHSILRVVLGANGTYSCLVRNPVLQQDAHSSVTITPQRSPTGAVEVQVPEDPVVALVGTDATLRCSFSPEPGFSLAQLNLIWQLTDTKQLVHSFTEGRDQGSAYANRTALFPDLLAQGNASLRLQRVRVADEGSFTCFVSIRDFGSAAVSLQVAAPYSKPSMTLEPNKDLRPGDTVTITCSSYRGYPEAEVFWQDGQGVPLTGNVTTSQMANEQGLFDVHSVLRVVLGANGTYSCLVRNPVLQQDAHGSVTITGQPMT

[8] = target: T7, human B7-H3-2Ig-his protein; experiment: BLI (ForteBio), antibody on Protein A sensor, antigen 200-3.125 nM, 1:1 global fit (result 2)
monkey B7-H3-his protein [9] = target: monkey B7-H3-his protein (monkey); experiment: as above
[10] = target: T8, human B7-H3-4Ig-his protein; experiment: as above

Chain of human C1q (P02745 23-245 limits assumed, chain 1 of 3): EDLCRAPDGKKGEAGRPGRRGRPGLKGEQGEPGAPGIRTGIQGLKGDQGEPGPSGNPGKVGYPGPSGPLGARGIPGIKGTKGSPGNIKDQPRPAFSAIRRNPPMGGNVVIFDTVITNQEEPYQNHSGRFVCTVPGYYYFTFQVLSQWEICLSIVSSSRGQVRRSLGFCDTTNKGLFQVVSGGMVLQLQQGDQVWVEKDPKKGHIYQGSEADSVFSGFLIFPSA
Chain of human C1q (P02746 28-253 limits assumed, chain 2 of 3, further chain): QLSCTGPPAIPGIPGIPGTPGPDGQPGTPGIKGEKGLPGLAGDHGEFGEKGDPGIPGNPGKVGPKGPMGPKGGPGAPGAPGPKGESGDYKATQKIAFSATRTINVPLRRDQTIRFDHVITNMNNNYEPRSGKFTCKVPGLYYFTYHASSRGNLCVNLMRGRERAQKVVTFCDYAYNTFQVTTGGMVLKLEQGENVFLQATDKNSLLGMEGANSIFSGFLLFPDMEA
Chain of human C1q (P02747 29-245 limits assumed, chain 3 of 3, further chain): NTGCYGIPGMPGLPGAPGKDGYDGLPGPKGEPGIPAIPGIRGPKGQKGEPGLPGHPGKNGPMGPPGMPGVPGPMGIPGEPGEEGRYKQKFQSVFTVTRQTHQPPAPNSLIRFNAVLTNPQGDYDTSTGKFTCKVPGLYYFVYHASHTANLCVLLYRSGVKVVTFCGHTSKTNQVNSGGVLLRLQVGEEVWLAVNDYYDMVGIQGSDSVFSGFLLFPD

EC50 [1]: 0.0649 µg/mL
EC50 [2]: 0.115 µg/mL
Kd [5]: 18.3 nM
Kd (monkey B7-H3-his protein [6]): 1.24 nM
Kd [7]: 0.783 nM
Kd [8]: 39.8 nM
Kd (monkey B7-H3-his protein [9]): 2.23 nM
Kd [10]: 1.14 nM
B1: fully human anti-B7-H3 antibody 2#8890 (antibody, human IgG1, kappa)
heavy: QVQLQESGPGLVQPSGTLSLTCAVSGGSDSSTNWWTWVRQSPGQGLEWIGEISPIGFTSYSPSLRSRVTISVDKSKTQFSLKLSSVTAADTAVYYCARDRLYFAFWGQGTLVTVSSASTKGPSVFPLAPSSKSTSGGTAALGCLVKDYFPEPVTVSWNSGALTSGVHTFPAVLQSSGLYSLSSVVTVPSSSLGTQTYICNVNHKPSNTKVDKKV[human IgG1 Fc with L234A L235A G237A (EU numbers) left out here]
light: EIVMTQSPATLSVSPGERATLSCRASQSVSSNLAWYQQKPGQAPRLLIYGASTRATGIPDRFSGSGSGTEFTLTISSLESEDFAVYYCQQYNNWPITFGQGTRLEIKRTVAAPSVFIFPPSDEQLKSGTASVVCLLNNFYPREAKVQWKVDNALQSGNSQESVTEQDSKDSTYSLSSTLTLSKADYEKHKVYACEVTHQGLSSPVTKSFNRGEC
notes: expressed in CHO-S, Protein A purified
binding result (rat B7-H3 on CHO-S cells): no binding (tested: 10 ug/ml (highest concentration))
binding result (human C1q): no binding (tested: 5000 nM (highest concentration))
binding result [3]: no binding (tested: 5000 nM (highest concentration))
binding result [4]: no binding (tested: 5000 nM (highest concentration))
